Laboratory results published in PubChem BioAssay (Tox21).
Inconclusive means that the source gave no clear call. Such entries were picked first, then a sample of the others. Potencies of inconclusive entries are doubtful fits and often do not repeat. Active and inactive are the calls of the source. Calls come from the whole dose curve; as a rule, active = well fitted curve in the direction sought with a large enough effect in the repeat runs; inconclusive = weak or mixed curves; inactive = no such curve, though single readings can be large; an effect the other way counts as inactive or inconclusive.

Experiment: qHTS assay to identify small molecule antagonists of the retinoid acid receptor (RAR) signaling pathway - cell viability counter screen (AID 1159551); note: nearly all actives have a fitted effect of over 35% in size
Conditions: C3RL4 cells viability, ATP luminescence (CellTiter-Glo), 6 h; series mostly up to 92.4 µM
In short: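 Cells (C3RL4) are plated, incubated overnight, dosed with compound in DMSO, then given retinol at 1 uM final. After 6 h at 37 C, CellTiter-Glo is added and luminescence read following 30 min at room temperature.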
% is set by controls: 0 for no effect and ±100 for the full control effect; potency is the fitted concentration of half-maximal effect; tags give direction and shape of the fitted curve.

Row | Compound | Potency
1 | CCN(CC)c1ccc2c(-c3ccc(S(=O)(=O)O)cc3S(=O)(=O)[O-])c3ccc(=[N+](CC)CC)cc-3oc2c1 | active: 31.6 µM
2 | O=c1[nH]cnc2c1ncn2[C@@H]1O[C@H](CO)[C@@H](O)[C@H]1O | inconclusive: 1.68 µM [rising, full curve]
3 | O=C=Nc1ccc(Cc2ccc(N=C=O)cc2)cc1 | inconclusive: 30.1 µM [rising, single point]
4 | CO[C@H]1C=CO[C@@]2(C)Oc3c(C)c(O)c4c(O)c(c(/C=N/N5CCN(C)CC5)c(O)c4c3C2=O)NC(=O)/C(C)=C\C=C[C@H](C)[C@H](O)[C@@H](C)[C@@H](O)[C@@H](C)[C@H](OC(C)=O)[C@@H]1C | inconclusive: 54.8 µM [cytotoxic, partial curve, poor fit]
5 | C1CCCNCC1 | inactive
6 | O=C1OCCN1/N=C/c1ccc([N+](=O)[O-])o1 | inactive
7 | O=C(c1ccccc1)C1CCCCC1 | inactive
8 | COCCOC(=O)C1=C(C)NC(C)=C(C(=O)OC(C)C)C1c1cccc([N+](=O)[O-])c1 (centres undefined) | inactive
9 | O=C(OCC(COC(=O)c1ccccc1)(COC(=O)c1ccccc1)COC(=O)c1ccccc1)c1ccccc1 | inactive
10 | C=CCOCC(CC)(CO)COCC=C | inactive
11 | CC1=NN(c2ccc(S(=O)(=O)O)cc2)C(=O)C1 | inactive
12 | Cc1ccc(O)c(O)c1 | inconclusive: 74.8 µM [cytotoxic, single point]

Experiment: qHTS assay to identify small molecule antagonists of the retinoic acid receptor (RAR) signaling pathway (AID 1159552; note: nearly all actives have a fitted effect of over 50% in size)
Conditions: C3RL4 RARE luciferase reporter, retinol-stimulated, 6 h; series mostly up to 92.4 µM
In short: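 Luminescent RARE reporter read-out in C3RL4 cells: 6 hr co-treatment at 37 C of test compounds with retinol at 1 uM final. Cells plated overnight beforehand; luciferase reagent incubated 30 min at room temperature before reading.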

Row | Compound | Potency
13 | CN(C)CC/C=C1/c2ccccc2COc2ccc(CC(=O)O)cc21 | inactive
14 | Cc1ccc2c(c1)C(=O)c1ccccc1C2=O | inactive
15 | C=C[C@@]1(C)CC(=O)[C@]2(O)[C@@]3(C)[C@@H](O)CCC(C)(C)[C@@H]3[C@H](O)[C@H](OC(C)=O)[C@@]2(C)O1 | inconclusive: 27.3 µM [inhibitor, full curve]
16 | O=C1c2ccccc2C(=O)N1CCl | inconclusive: 60.8 µM [inhibitor, single point]
17 | CN1CCC(=C2c3ccccc3CCc3sccc32)CC1 | inconclusive: 13.3 µM [inhibitor, partial curve]
18 | Cc1c(C)c2c(c(C)c1O)CC[C@@](C)(CCC[C@H](C)CCC[C@H](C)CCCC(C)C)O2 | inconclusive: 24.5 µM [inhibitor, partial curve]
19 | CCc1nn(C2CCCCC2)c2cc(C3(C#N)CCC(C(=O)O)CC3)ccc12 (centres undefined) | inconclusive: 30.6 µM [inhibitor, partial curve]
20 | CC(=O)C1(C)CC2=C(CCCC2(C)C)CC1C (centres undefined) | inactive
21 | CCN(CC)c1ccc2c(-c3ccc(S(=O)(=O)O)cc3S(=O)(=O)[O-])c3ccc(=[N+](CC)CC)cc-3oc2c1 | inconclusive: 31.6 µM [inhibitor, partial curve]
22 | CCOC(=O)COc1ccc(C)cc1 | inactive
23 | Cc1c(NC(C)C)c(=O)n(-c2ccccc2)n1C | inactive
24 | O=C1OCCN1/N=C/c1ccc([N+](=O)[O-])o1 | inconclusive: 8.41 µM [inhibitor, partial curve]
25 | Nc1nc(Cl)cc(Cl)n1 | inactive
26 | C=Cc1ccccn1 | inconclusive: 49.1 µM [inhibitor, partial curve]
27 | CC(=N\O)/C(C)=N/O | inconclusive: 48.6 µM [inhibitor, partial curve, poor fit]
28 | C=C(C)C(=O)OCCC[Si](Cl)(Cl)Cl | inconclusive: 24.6 µM [inhibitor, single point]
29 | CC(=O)CC(C)(C)C1CCCCC1 | inactive
30 | CN1CCC(=C2c3ccccc3C=Cc3ccccc32)CC1 | inconclusive: 11.9 µM [inhibitor]
31 | Cc1ccc(O)c(O)c1 | inconclusive: 66.6 µM [inhibitor, single point]
32 | Cc1cc(C(C)(C)C)c(O)c(C)c1Cn1c(=O)n(Cc2c(C)cc(C(C)(C)C)c(O)c2C)c(=O)n(Cc2c(C)cc(C(C)(C)C)c(O)c2C)c1=O | inconclusive: 24.3 µM [inhibitor, partial curve, poor fit]

Experiment: qHTS assay to identify small molecule agonists of the retinoic acid receptor (RAR) signaling pathway (AID 1159553)
Conditions: C3RL4 RARE luciferase reporter, agonist, 6 h; activation: at 73.3 µM (top of the series) unless noted
In short: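 Seed C3RL4 reporter cells at 1,000 per well and incubate overnight at 37 C. Add compounds in DMSO, incubate 6 hr. Add luciferase reagent, wait 30 min at room temperature, read luminescence.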

Row | Compound | Potency | activation
33 | CN(C)CC/C=C1/c2ccccc2COc2ccc(CC(=O)O)cc21 | inactive | 
34 | Cc1ccc2c(c1)C(=O)c1ccccc1C2=O | active: 4.31 µM | 
35 | C=C[C@@]1(C)CC(=O)[C@]2(O)[C@@]3(C)[C@@H](O)CCC(C)(C)[C@@H]3[C@H](O)[C@H](OC(C)=O)[C@@]2(C)O1 | inactive | 
36 | CN1CCC(=C2c3ccccc3CCc3sccc32)CC1 | inconclusive: 10.6 µM [inhibitor, partial curve] | 
37 | C/C=C(\C)C(=O)OCc1ccccc1 | inconclusive: 77 µM [inhibitor, single point] | 
38 | Cc1[nH]cnc1CN1CCc2c(c3ccccc3n2C)C1=O | inactive | 
39 | ONc1ccccc1 | active: 24.1 µM | 
40 | CCN(CC)c1ccc2c(-c3ccc(S(=O)(=O)O)cc3S(=O)(=O)[O-])c3ccc(=[N+](CC)CC)cc-3oc2c1 | inactive | 
41 | CCOC(=O)COc1ccc(C)cc1 | inconclusive: 68.6 µM [inhibitor, single point] | 
42 | C/C=C(\C)C(=O)OCCc1ccccc1 | active: 27.3 µM | 
43 | O=C1c2ccccc2C(=O)c2cc(Cl)ccc21 |  | inactive: 2.57% [at 8.36 µM]
44 | Cc1ccc(N=Nc2c(O)c(C(=O)O)cc3ccccc23)c(S(=O)(=O)O)c1 |  | inconclusive: -5.26% [phenotype inactive]
45 | CCCCCCCCCCC[C@@H](C[C@@H]1OC(=O)[C@H]1CCCCCC)OC(=O)[C@H](CC(C)C)NC=O | inactive | 
46 | O=Cc1ccccc1C=O | inconclusive: 68.6 µM [inhibitor, single point] | 
47 | CCOC(=O)c1ccc(OC(=O)CCCCCN=C(N)N)cc1 | inconclusive: 29.8 µM [activator, partial curve, poor fit] | 
48 | CC(=O)c1ccc2c(c1)Cc1ccccc1-2 | inconclusive: 13.7 µM [activator, full curve] | 
49 | Cc1ccc(O)c(O)c1 | inconclusive: 74.8 µM [inhibitor, single point] | 
